Measurements from paper PMC6262466, “Towards Initial Indications for a Thiol-Based Redox Control of Arabidopsis 5-Aminolevulinic Acid Dehydratase” (Antioxidants, 2018).
These are yes or no findings as the source states them, for the method shown. For part of these data: Binding seen in cells or lysates may run through a third protein. Some binding calls cover weakened binding; strength is not graded here. Tags and fused reporters may be left off the sequences shown. One block for each binder: values may come before it.

Key:
[1] = target: T1, thioredoxin f1 (TRX f1), split-YFP fusion for BiFC (Arabidopsis thaliana) (UniProt Q9XFH8); experiment: split reporter; fusions to the C- or N-terminal part of YFP (pVYCE, pVYNE), transiently expressed in Nicotiana benthamiana leaves for 48-72 h in darkness; YFP fluorescence by confocal microscopy
T1 sequence: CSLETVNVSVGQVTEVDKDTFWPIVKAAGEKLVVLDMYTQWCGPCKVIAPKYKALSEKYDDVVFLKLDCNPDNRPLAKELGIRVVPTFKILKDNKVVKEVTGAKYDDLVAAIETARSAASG

[2] = target: T2, NADPH-dependent thioredoxin reductase C (NTRC), split-YFP fusion for BiFC (Arabidopsis thaliana) (UniProt O22229); experiment: as above
T2 sequence: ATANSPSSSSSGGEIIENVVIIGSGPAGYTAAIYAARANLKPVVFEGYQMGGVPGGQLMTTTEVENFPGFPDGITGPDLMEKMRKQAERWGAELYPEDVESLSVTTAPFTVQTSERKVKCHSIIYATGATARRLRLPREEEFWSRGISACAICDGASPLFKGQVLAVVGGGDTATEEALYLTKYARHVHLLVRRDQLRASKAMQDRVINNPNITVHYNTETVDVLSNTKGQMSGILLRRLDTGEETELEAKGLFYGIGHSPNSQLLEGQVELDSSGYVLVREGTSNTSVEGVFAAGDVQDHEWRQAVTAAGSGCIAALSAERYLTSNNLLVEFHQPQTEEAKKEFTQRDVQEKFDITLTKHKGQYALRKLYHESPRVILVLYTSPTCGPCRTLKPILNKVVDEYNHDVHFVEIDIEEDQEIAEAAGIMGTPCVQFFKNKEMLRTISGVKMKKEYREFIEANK

[3] = target: T3, thioredoxin m4 (TRX m4), split-YFP fusion for BiFC (Arabidopsis thaliana) (UniProt Q9SEU6); experiment: as above
T3 sequence: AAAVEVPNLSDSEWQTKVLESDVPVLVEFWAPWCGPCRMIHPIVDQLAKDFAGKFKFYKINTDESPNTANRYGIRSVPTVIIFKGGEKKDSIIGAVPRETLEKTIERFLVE

[4] = target: T4, 6 x His-tagged NTRC(C457S) (Arabidopsis thaliana) (UniProt O22229); experiment: pull-down; 100 ug purified 6 x His-tagged bait on Ni-NTA agarose in PBS; incubated 1.5 h at 4 C with Arabidopsis chloroplast extract solubilized with 1% dodecyl maltoside; five washes with PBS; eluted with 250 mM imidazole; immunoblot; only the target purified
T4 sequence: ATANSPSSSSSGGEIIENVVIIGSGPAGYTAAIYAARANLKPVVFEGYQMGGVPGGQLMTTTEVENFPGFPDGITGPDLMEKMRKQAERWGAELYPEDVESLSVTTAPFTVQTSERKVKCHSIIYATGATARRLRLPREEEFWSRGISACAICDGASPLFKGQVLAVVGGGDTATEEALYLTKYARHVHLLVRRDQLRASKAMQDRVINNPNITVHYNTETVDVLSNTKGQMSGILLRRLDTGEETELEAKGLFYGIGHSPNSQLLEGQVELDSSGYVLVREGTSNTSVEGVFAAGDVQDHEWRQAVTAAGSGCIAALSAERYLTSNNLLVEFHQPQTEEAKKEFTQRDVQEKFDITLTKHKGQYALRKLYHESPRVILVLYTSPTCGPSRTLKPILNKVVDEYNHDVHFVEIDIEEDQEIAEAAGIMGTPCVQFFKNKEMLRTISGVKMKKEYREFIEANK

[5] = target: T5, 6 x His-tagged TRX m4(C119S) (Arabidopsis thaliana) (UniProt Q9SEU6); experiment: as above
T5 sequence: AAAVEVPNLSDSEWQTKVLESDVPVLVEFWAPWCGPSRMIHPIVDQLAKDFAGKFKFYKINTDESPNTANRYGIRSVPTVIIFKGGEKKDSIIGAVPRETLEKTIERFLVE

[6] = target: recombinant His-tagged ALAD (ALAD1 without the predicted transit peptide) (Arabidopsis thaliana) (UniProt Q9SFH9); experiment: condition: only under reducing conditions (DTT 1-100 mM); non-reducing SDS-PAGE with immunoblot; 0.5 uM purified His-ALAD preincubated in PBS with DTT (1-100 mM), reduced; non-reducing 10% SDS polyacrylamide gel; anti-His blot; both purified

binding [1]: binds
binding [2]: binds
binding [3]: binds
B1: 5-aminolevulinic acid dehydratase (ALAD), split-YFP fusion for BiFC (enzyme, UniProt Q9SFH9 53-430)
chain: ASESGNGHAKKLGMSDAECEAAVAAGNVPEAPPVPPKPAAPVGTPIIKPLNLSRRPRRNRASPVTRAAFQETDISPANFVYPLFIHEGEEDTPIGAMPGCYRLGWRHGLVQEVAKARAVGVNSIVLFPKVPEALKNSTGDEAYNDNGLVPRTIRLLKDKYPDLIIYTDVALDPYSSDGHDGIVREDGVIMNDETVHQLCKQAVSQARAGADVVSPSDMMDGRVGAIRSALDAEGFQNVSIMSYTAKYASSFYGPFREALDSNPRFGDKKTYQMNPANYREALIEAREDEAEGADILLVKPGLPYLDIIRLLRDKSPLPIAAYQVSGEYSMIKAGGVLKMIDEEKVMMESLMCLRRAGADIILTYFALQAATCLCGEKR

binding [4]: binds
binding [5]: binds
B2: 5-aminolevulinic acid dehydratase (ALAD), endogenous in chloroplast extract (enzyme, UniProt Q9SFH9 53-430)
chain: ASESGNGHAKKLGMSDAECEAAVAAGNVPEAPPVPPKPAAPVGTPIIKPLNLSRRPRRNRASPVTRAAFQETDISPANFVYPLFIHEGEEDTPIGAMPGCYRLGWRHGLVQEVAKARAVGVNSIVLFPKVPEALKNSTGDEAYNDNGLVPRTIRLLKDKYPDLIIYTDVALDPYSSDGHDGIVREDGVIMNDETVHQLCKQAVSQARAGADVVSPSDMMDGRVGAIRSALDAEGFQNVSIMSYTAKYASSFYGPFREALDSNPRFGDKKTYQMNPANYREALIEAREDEAEGADILLVKPGLPYLDIIRLLRDKSPLPIAAYQVSGEYSMIKAGGVLKMIDEEKVMMESLMCLRRAGADIILTYFALQAATCLCGEKR

binding [6]: no binding
B3: recombinant His-tagged ALAD (ALAD1 without the predicted transit peptide) (enzyme, Arabidopsis thaliana, UniProt Q9SFH9 53-430, looked up)
chain: ASESGNGHAKKLGMSDAECEAAVAAGNVPEAPPVPPKPAAPVGTPIIKPLNLSRRPRRNRASPVTRAAFQETDISPANFVYPLFIHEGEEDTPIGAMPGCYRLGWRHGLVQEVAKARAVGVNSIVLFPKVPEALKNSTGDEAYNDNGLVPRTIRLLKDKYPDLIIYTDVALDPYSSDGHDGIVREDGVIMNDETVHQLCKQAVSQARAGADVVSPSDMMDGRVGAIRSALDAEGFQNVSIMSYTAKYASSFYGPFREALDSNPRFGDKKTYQMNPANYREALIEAREDEAEGADILLVKPGLPYLDIIRLLRDKSPLPIAAYQVSGEYSMIKAGGVLKMIDEEKVMMESLMCLRRAGADIILTYFALQAATCLCGEKR
notes: Arabidopsis thaliana ALAD1 (HEMB1; AT1G69740) without the predicted transit peptide (ChloroP); also called recombinant ALAD; purified ALAD; source: E. coli Rosetta(DE3), pET28a, purified (Ni-NTA agarose); not shown: His6, N-terminal, kept
